Measured values from the supplement of paper PMC3334620.
In all, about 33,000 sequences were measured (“E-score (-0.5 to 0.5)”: median about -0.053, highest 2% from about 0.37 on). Some of the results follow.

The sequences below were run against Hap1 (UniProt P0CE41) (assay: PBM E-score (8-mer binding enrichment) (E-score (-0.5 to 0.5)); higher = stronger / more preferred TF binding; most listed sequences are background and not binding sites). Details: protein concentration: 200 nM; construct: GST-DNA-binding domain.
UniProt P0CE41, sequence (P0CE41 whole entry, the tested form may be a part): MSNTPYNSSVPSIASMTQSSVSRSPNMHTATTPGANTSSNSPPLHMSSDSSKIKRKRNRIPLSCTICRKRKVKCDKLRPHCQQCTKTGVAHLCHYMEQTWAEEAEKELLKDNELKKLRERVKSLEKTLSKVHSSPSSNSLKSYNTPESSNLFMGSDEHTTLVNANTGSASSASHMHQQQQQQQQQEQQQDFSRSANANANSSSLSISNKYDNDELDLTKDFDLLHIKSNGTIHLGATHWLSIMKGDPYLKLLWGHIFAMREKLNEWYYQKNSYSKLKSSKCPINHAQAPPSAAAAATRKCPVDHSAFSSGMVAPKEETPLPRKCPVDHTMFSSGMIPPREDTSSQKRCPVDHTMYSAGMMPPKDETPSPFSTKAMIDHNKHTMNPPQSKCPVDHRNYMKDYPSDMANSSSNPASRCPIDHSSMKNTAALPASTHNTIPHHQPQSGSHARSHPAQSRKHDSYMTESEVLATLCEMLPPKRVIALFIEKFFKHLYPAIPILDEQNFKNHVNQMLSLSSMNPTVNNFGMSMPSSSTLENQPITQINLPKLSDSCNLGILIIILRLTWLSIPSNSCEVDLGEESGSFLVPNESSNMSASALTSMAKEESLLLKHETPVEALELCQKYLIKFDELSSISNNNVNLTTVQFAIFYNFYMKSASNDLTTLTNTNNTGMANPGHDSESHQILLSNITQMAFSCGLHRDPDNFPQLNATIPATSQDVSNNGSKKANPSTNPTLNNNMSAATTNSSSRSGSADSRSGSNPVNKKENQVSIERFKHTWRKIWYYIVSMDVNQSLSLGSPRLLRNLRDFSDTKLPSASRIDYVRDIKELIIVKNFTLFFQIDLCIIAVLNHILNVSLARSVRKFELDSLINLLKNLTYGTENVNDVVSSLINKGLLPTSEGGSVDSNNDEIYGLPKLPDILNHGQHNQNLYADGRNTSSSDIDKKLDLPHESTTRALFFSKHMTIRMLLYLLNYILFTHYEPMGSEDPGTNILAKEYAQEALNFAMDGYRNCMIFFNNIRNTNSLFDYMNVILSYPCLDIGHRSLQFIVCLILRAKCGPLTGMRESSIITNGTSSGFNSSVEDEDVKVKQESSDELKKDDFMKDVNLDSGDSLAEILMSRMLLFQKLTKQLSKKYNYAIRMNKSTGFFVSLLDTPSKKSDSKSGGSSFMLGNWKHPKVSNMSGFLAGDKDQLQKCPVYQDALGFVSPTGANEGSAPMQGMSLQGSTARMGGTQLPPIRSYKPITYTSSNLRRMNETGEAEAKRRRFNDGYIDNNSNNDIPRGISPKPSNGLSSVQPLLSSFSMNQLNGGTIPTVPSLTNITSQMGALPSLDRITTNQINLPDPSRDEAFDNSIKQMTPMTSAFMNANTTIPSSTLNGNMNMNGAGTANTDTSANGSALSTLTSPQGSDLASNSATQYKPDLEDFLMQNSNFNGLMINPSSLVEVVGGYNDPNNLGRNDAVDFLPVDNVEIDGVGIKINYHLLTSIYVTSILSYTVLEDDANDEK
Description: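 Universal 'all 10-mer' protein binding microarrays (Agilent AMADID 015681) probed with GST-tagged S. cerevisiae TFs (full-length or DBD) made by in vitro transcription/translation (PURExpress), about 100-200 nM. Bound TF was detected with fluorescent anti-GST. Each ungapped 8-mer (which stands for itself and its reverse complement) is scored by the PBM enrichment score (E-score), a modified Wilcoxon-Mann-Whitney statistic from -0.5 to +0.5, computed with the Universal PBM Analysis Suite. Scale: above 0.35 generally sequence-specific binding.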

| Sequence | PBM E-score |
| --- | --- |
| GAATGTAA | 0.131 |
| ATCCTGTG | -0.205 |
| GATAGACA | -0.229 |
| CCAGTCGG | 0.214 |
| ATGGGCGG | 0.0669 |
| AATAATTA | 0.0105 |
| AAGTATGG | -0.104 |
| ATTAGTAC | 0.0729 |
| CTAAGATC | 0.0174 |
| AGCGTTTC | -0.208 |
| CCCAATAG | -0.334 |
| GCGTCCGA | 0.305 |
| GGTAGGTA | -0.0912 |
| GCAGATCC | 0.0294 |
| CCACATTC | -0.0225 |
| AGGGGGCC | -0.211 |
| CATTAGCA | -0.142 |
| TGACCTAA | -0.158 |
| AGGTGACT | -0.258 |
| CTTTCCGC | 0.194 |
| ACTTATTC | 0.164 |
| ACCCGGTC | 0.222 |
| AAGCTTCG | 0.0819 |
| TCGTGCAA | -0.255 |

| Sequence | PBM E-score |
| --- | --- |
| CGCATGAC | -0.111 |
| CCGGCTTC | 0.256 |
| GAGGGTGC | 0.00201 |
| AAGTTGAT | -0.0761 |
| CCTCTCTC | -0.241 |
| AGTGTCTG | -0.21 |
| ACTGATGC | -0.133 |
| CATAATCA | -0.0514 |
| AGACACCC | -0.165 |
| AATCAAGC | -0.214 |
| CAACTTAC | -0.0151 |
| AGGTGTCG | -0.00389 |
| CTGGCCCA | -0.198 |
| AGCCGCTA | 0.112 |
| CATCAGGA | 0.074 |
| ATATGATA | 0.123 |
| GCACGGCA | -0.0211 |
| AAATTCCA | 0.0643 |
| TCAGAGCA | -0.266 |
| GGGAGGTA | -0.00628 |
| GACTTAAC | 0.0431 |
| ACTCAAAT | -0.18 |
| ACAACAAC | -0.234 |
| ACGCTGTG | -0.159 |

| Sequence | PBM E-score |
| --- | --- |
| AATTAATA | 0.103 |
| ATAATATA | 0.0224 |
| ATCACGTG | -0.0845 |
| CGCTCCAG | 0.00737 |
| GAGTGCGC | 0.0129 |
| AGTAGTTC | 0.0511 |
| CACAGGAC | 0.00956 |
| CAAGCGCC | 0.17 |
| AGGGTTGC | -0.236 |
| ACTTTAGG | -0.156 |
| AAATCGAT | -0.142 |
| GTCGGGCA | 0.108 |
| ACCTAGAG | -0.208 |
| GACTCCGC | 0.174 |
| CCTCTCAG | -0.359 |
| GGCGCTAA | 0.172 |
| CTTTGCAA | -0.0923 |
| ACCGGAAC | 0.403 |
| ACCCGTTG | 0.0238 |
| AGACGTTG | -0.0723 |
| GAAAAGTC | 0.0327 |
| AAGAGAGG | -0.141 |
| TACATGGA | 0.122 |
| AAATGTTG | -0.267 |

| Sequence | PBM E-score |
| --- | --- |
| AGAATGCT | -0.273 |
| CCAGCCAC | -0.0766 |
| ATTATTGA | -0.15 |
| ATGAAACG | -0.0187 |
| GAGCCTAC | -0.0381 |
| CCCCGTAA | 0.139 |
| CCTCACGA | -0.313 |
| TGCGAAAA | -0.00129 |
| TAACATTA | -0.0125 |
| AGCAAAGC | -0.0791 |
| ATAATTCC | 0.309 |
| GTCCGGGA | 0.38 |
| ACCTACCC | -0.0199 |
| ATCTCACA | -0.307 |
| CCAATATC | 0.117 |
| TAGGACCA | -0.0211 |
| CGTGCGAC | -0.0831 |
| CATCCAAA | -0.16 |
| GGTTCTCA | -0.221 |
| CACTTCGG | 0.257 |
| AGTGGCAG | -0.226 |
| ATTATATG | -0.112 |
